Reference: US5648379A (priority 1990, dated 1997)

What was measured:
[1] = molecular target: V. cholerae neuraminidase (Vibrio cholerae serotype O1, UniProt P0C6E9); assay: biochemical
influenza = details: cited from earlier work
parainfluenza viruses = details: in vitro; Palese et al. 1974; cited from earlier work

Row | SMILES | Ki [1] | inhibition of multi-cycle replication of influenza virus (influenza) | inhibition of multi-cycle replication of parainfluenza viruses (parainfluenza viruses)
1 | CC(=O)N[C@H]1[C@H]([C@H](O)[C@H](O)CO)OC(C(=O)O)=C[C@@H]1N=C(N)N [Compound 7, Ammonium 5-Acetamido-4-guanidino-2,3,4,5-tetradeoxy-D-glycero-D-galacto-non-2-enopyranosonate] | 450 µM |  | 
2 | O=C(O)C1=C[C@H](O)[C@@H](NC(=O)C(F)(F)F)[C@H]([C@H](O)[C@H](O)CO)O1 [FANA, 2-deoxy-2,3-dehydro-N-trifluoroacetyl-neuraminic acid] |  | inhibits multi-cycle replication | inhibits multi-cycle replication
